Test results published in the supplement of paper PMC12217912.
The list shows a part of the results. Sequences were assembled here from the parent chain. Values near 0.05 are background.

B1: TEV protease; numbered along this chain (parent)
chain: MGESLFKGPRDYNPISSSICHLTNESDGHTTSLYGIGFGPFIITNKHLFRRNNGTLVVQSLHGVFKVKDTTTLQQHLVDGRDMIIIRMPKDFPPFPQKLKFREPQREERICLVTTNFQTKSMSSMVSDTSCTFPSGDGIFWKHWIQTKDGQCGSPLVSTRDGFIVGIHSASNFTNTNNYFTSVPKNFMELLTNQEAQQWVSGWRLNADSVLWGGHKVFMVKPEEPFQPVKEATQL

Variants of: B1
Assay: raw area under fraction-flipped curve 0-4 h after induction (AUC4h, not background-subtracted), DNA-recorder readout of cleavage of the substrate (dimensionless); higher = more cleavage of the substrate by the protease variant
Settings: temperature: 34 °C; time window: 0-4 h after rhamnose induction
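Further: Bxb1 expression induced with 0.2% (w/v) L-rhamnose at OD600 near 0.5, cultures sampled hourly, flipped fraction per protease–substrate barcode pair counted by paired-end Illumina sequencing.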

Variant	area with substrate ENLDFQS	area with substrate ENLFFQS	area with substrate ENLKFQS	area with substrate ENLLFQS	area with substrate ENLMFQS	area with substrate ENLNFQS	area with substrate ENLSFQS	area with substrate ENLVFQS	area with substrate ENLCFQS	area with substrate ENLHFQS	area with substrate ENLWFQS	area with substrate ENLEFQS	area with substrate ENLGFQS	area with substrate ENLIFQS	area with substrate ENLPFQS	area with substrate ENLQFQS	area with substrate ENLRFQS	area with substrate ENLTFQS
N52M	0.0625	0.0644	0.076	0.0612	0.0394	0.108	0.0708	0.0642	–	–	–	–	–	–	–	–	–	–
T132S	0.0619	0.0705	0.0901	–	–	0.0775	–	–	0.0319	0.0645	0.068	–	–	–	–	–	–	–
N116A	0.0583	0.0912	0.0835	0.104	–	0.0568	0.0644	–	0.0807	0.0687	0.063	0.12	0.0752	0.0757	0.0424	0.073	0.0763	–
V64N	0.0593	0.0849	0.0719	0.0757	0.065	0.0625	–	–	–	0.0562	–	0.0741	–	–	0.0759	0.0779	0.0604	0.06
C111K	–	0.0903	0.118	–	–	0.0606	0.0776	–	0.0411	0.0516	–	0.0664	–	0.0782	–	–	0.0781	0.0413
I110H	0.0549	0.0621	0.0582	–	–	0.06	0.0586	0.0534	0.0554	0.0464	0.0584	0.0505	0.07	0.0694	0.0515	0.161	–	–
F140I	0.056	0.0576	0.0622	0.057	–	0.0585	0.0654	0.0558	0.0545	0.0566	0.0511	0.0552	0.0763	–	0.0664	0.0746	0.0603	–
F117M	0.031	0.075	0.0825	–	–	0.0585	0.031	–	0.064	0.0701	–	–	0.0637	–	–	–	0.0753	–
V183I	–	–	0.0651	0.0564	–	0.0634	–	0.0795	0.0507	0.095	0.0635	–	–	0.0777	0.0721	0.0706	0.0359	0.0999
I85K	0.0564	0.0693	0.061	0.0589	–	–	–	0.0412	0.0669	0.0599	0.0505	0.0764	–	–	0.0498	–	–	0.0695
E195C	0.0494	–	0.0681	–	–	0.057	–	–	0.074	0.0636	0.0651	0.0914	–	–	0.0284	–	–	–
M188C	0.062	–	–	–	–	0.0578	0.0616	0.0667	0.063	–	–	0.0761	–	–	–	–	–	0.0839
K7A	0.0881	0.0952	–	0.0852	0.0839	0.0767	–	–	–	–	0.0847	0.0944	–	0.0718	0.0443	–	–	–
S158H	0.0574	0.0529	0.0549	0.0368	–	–	0.0431	0.0467	0.0564	0.0576	–	0.0373	–	–	0.0464	–	0.059	–
D79L	0.0485	0.0908	0.0715	0.0679	0.071	0.0685	–	–	0.0665	–	0.0655	0.0588	–	0.0801	0.0609	–	0.064	–
D79G	0.0596	0.0704	0.0865	0.0734	–	0.0582	0.0574	0.0704	0.0834	0.0707	0.0708	0.0616	0.0639	–	0.0581	0.0544	0.0799	–
S135D	0.0498	0.0807	0.068	0.068	–	0.063	–	0.0772	0.043	–	0.0858	0.0555	–	0.0872	–	–	–	–
N45D	0.0583	0.0588	0.0655	0.0579	–	0.0653	0.0623	0.0533	–	0.0611	0.062	0.0578	–	–	0.0613	–	0.0614	–
R51M	0.0594	0.085	0.0812	–	–	0.0734	0.0504	0.0744	–	0.0786	0.066	–	0.0653	0.0949	0.0603	–	0.0811	0.082
G63M	0.0612	0.0777	0.061	0.0767	–	–	0.0608	0.0734	0.066	0.0669	0.0623	0.0613	–	0.0643	0.0694	0.071	0.0641	–
I164L	0.0594	0.0907	0.0671	0.0763	–	0.0599	0.0497	–	0.068	0.0635	0.0653	0.0716	0.0578	–	0.0568	–	–	–
K230G	–	0.0808	0.0867	0.0645	–	0.0556	0.0625	0.0928	0.0776	0.0616	0.0875	–	0.0636	0.101	–	–	0.0868	–
K221T	0.0642	0.0703	0.0709	0.07	–	0.0542	0.0595	0.069	0.0641	0.0557	0.0575	0.0605	0.0649	0.0736	0.0766	0.0728	–	–
M219R	0.0628	0.0821	0.0532	0.0688	–	0.0705	–	–	0.0567	0.0728	0.0792	0.0759	0.0614	0.0565	0.0687	–	0.058	–
M219L	0.0547	0.0838	0.0976	0.0731	–	0.0768	0.0483	0.118	0.0501	0.0865	–	0.0571	–	–	0.0678	–	–	–
H47R	0.0641	0.0628	0.0574	0.0504	0.0664	0.0629	0.0675	–	–	0.0691	0.0417	0.0761	0.0609	–	–	–	–	–
V57Y	0.0759	0.0759	0.0807	0.0824	–	0.0841	0.0561	0.0743	0.0671	0.0873	0.0559	0.0584	0.0631	0.0847	0.0594	0.0525	0.0747	–
V57M	0.0539	0.0855	0.0707	0.0925	0.0937	–	–	0.0582	–	0.056	0.0626	0.0621	0.0699	0.0446	0.0578	0.0481	0.0737	–
T192D	0.0636	0.0759	0.0789	–	0.066	0.0722	–	–	0.0902	0.0766	–	–	–	–	0.0637	–	0.0652	–
